From paper PMC4336329 (PLoS ONE, 2015)
The campaign covered roughly 310,000 compounds. About 2,200 (0.71%) showed an effect of 50% or more. Effects have a minus sign here. Some of the results follow.

These molecules were tested against human ether-à-go-go-related gene (hERG) potassium channel (human, UniProt Q12809) (assay: primary screen, population patch clamp on CHO cells stably expressing hERG).
human ether-à-go-go-related gene (hERG) potassium channel, sequence (Q12809 whole entry, looked up): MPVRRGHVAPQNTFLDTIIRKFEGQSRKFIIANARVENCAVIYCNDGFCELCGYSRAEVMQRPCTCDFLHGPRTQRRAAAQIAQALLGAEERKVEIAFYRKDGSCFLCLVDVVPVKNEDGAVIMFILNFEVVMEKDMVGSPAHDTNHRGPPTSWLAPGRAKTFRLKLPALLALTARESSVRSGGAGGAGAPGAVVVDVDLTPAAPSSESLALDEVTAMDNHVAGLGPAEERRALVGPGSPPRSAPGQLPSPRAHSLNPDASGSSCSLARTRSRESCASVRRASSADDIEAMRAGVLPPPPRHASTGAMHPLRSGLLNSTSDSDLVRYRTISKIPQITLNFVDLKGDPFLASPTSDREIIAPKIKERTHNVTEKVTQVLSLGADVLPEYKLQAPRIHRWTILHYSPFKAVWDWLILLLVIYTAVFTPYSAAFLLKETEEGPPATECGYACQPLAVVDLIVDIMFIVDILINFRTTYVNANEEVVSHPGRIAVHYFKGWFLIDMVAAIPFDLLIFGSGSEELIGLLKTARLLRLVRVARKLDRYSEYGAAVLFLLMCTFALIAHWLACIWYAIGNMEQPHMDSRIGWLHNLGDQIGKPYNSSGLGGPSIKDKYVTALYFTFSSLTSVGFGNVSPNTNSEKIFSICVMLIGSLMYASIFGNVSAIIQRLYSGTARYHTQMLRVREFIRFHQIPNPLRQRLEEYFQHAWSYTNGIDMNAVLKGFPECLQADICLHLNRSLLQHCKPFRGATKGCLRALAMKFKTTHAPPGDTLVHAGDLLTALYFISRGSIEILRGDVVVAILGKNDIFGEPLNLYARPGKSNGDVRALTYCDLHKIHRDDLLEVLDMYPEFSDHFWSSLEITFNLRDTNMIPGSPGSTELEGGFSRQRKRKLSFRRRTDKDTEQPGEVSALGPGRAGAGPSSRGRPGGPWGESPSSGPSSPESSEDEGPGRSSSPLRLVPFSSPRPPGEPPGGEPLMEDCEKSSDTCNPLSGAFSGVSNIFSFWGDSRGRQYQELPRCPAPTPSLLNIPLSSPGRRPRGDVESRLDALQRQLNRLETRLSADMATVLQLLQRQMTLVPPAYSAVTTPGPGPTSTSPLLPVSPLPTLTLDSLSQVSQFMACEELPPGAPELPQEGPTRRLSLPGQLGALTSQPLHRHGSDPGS
With `Cc1nnc(NC(=O)CSc2ccc(-c3ccccn3)nn2)s1` the “hERG current change (%, negative = inhibition) at 1uM” value was 8.53%. For `COc1cc(/C=N/O)cc(Br)c1OCC(=O)NCc1ccccc1`, the “hERG current change (%, negative = inhibition) at 1uM” value was -8.18%. For `N#C/C(C(=O)N1CCOCC1)=C1/SC(Cc2ccccc2)C(=O)N1c1ccccc1` (stereo not shown), the “hERG current change (%, negative = inhibition) at 1uM” value was 0.283%. With `Cc1nc(SCC(=O)Nc2ccccc2Cl)c2c(C)c(C)sc2n1` the “hERG current change (%, negative = inhibition) at 1uM” value was 8.62%. In the case of `COc1cc(OC)c(CNC2CCCCCC2)cc1Br`, the “hERG current change (%, negative = inhibition) at 1uM” value is reported as -3.55%. For `COc1ccc(-n2ncc3c2CC(C)(C)CC3NC(=O)CCc2c(C)noc2C)cc1` (stereo not shown), the “hERG current change (%, negative = inhibition) at 1uM” value was 6.79%. For `CC(=O)N1c2ccc(S(=O)(=O)N3CCCC3)cc2CC1C(=O)NCc1ccccc1F` (stereo not shown), the “hERG current change (%, negative = inhibition) at 1uM” value was 10.2%. `O=C(CSc1nc2ccccc2s1)Nc1ccc2c(c1)oc1ccccc12` was tested, and the “hERG current change (%, negative = inhibition) at 1uM” value was 3.23%. In the case of `CSc1ccccc1NC(=O)Cn1nc([N+](=O)[O-])cc1C`, the “hERG current change (%, negative = inhibition) at 1uM” value is reported as 4.8%. `CC(C)c1ccc(NC(=O)COc2ccc(F)cc2C(=O)c2cnn(-c3ccccc3)c2)cc1` was tested, and the “hERG current change (%, negative = inhibition) at 1uM” value was 7.99%. In the case of `CCOCC(=O)Nc1nc2ccc(C)cc2s1`, the “hERG current change (%, negative = inhibition) at 1uM” value is reported as 3.34%. `CC(C)OC(=O)c1cc(C(=O)c2cc(Cl)ccc2O)coc1=N` was tested, and the “hERG current change (%, negative = inhibition) at 1uM” value was 22.9%. For `COc1cccc(NC(=O)N2CCCC2C(=O)NCc2ccccc2F)c1` (stereo not shown), the “hERG current change (%, negative = inhibition) at 1uM” value was -1.09%. For `CCOc1cc(CNc2ccc(N(C)C)cc2)cc(Br)c1OCC(=O)NC(C)(C)C`, the “hERG current change (%, negative = inhibition) at 1uM” value was 7.27%. With `Cc1cccc(NC(=O)C2CCCN(S(=O)(=O)c3ccc4c(c3)oc(=O)n4C)C2)c1` (stereo not shown) the “hERG current change (%, negative = inhibition) at 1uM” value was 9.71%. `O=C(NC1CCCC1)C1CCC(CNS(=O)(=O)c2ccc(F)cc2)CC1` (stereo not shown) was tested, and the “hERG current change (%, negative = inhibition) at 1uM” value was -4.73%. `Cc1noc(C)c1CSc1nnc(-c2ccccc2)n1N` was tested, and the “hERG current change (%, negative = inhibition) at 1uM” value was 5.8%. `CCN1/C(=C2\C(=O)N(C)C(=S)N2C)C=Cc2ccccc21` was tested, and the “hERG current change (%, negative = inhibition) at 1uM” value was 9.64%. `COc1ccccc1/C=N/NC(=O)c1cccc(OC(F)(F)C(F)F)c1` was tested, and the “hERG current change (%, negative = inhibition) at 1uM” value was 1.99%. In the case of `CC(CC(=O)N1CCN(S(=O)(=O)c2ccccc2)CC1)n1cncn1` (stereo not shown), the “hERG current change (%, negative = inhibition) at 1uM” value is reported as 15.7%. In the case of `CCOC(=O)CSc1nc2ccc(Nc3nc(N4CCOCC4)nc(N4CCOCC4)n3)cc2s1`, the “hERG current change (%, negative = inhibition) at 1uM” value is reported as -1.16%. `COc1ccc(C(=O)C2CCCN(S(=O)(=O)c3cccnc3)C2)c(C)c1` (stereo not shown) was tested, and the “hERG current change (%, negative = inhibition) at 1uM” value was 3.46%. `Oc1c(Br)cc(Cl)cc1C=Nc1ccc(N2CCOCC2)cc1` was tested, and the “hERG current change (%, negative = inhibition) at 1uM” value was 15.1%. In the case of `CSc1nnnn1-c1ccc(Cl)cc1`, the “hERG current change (%, negative = inhibition) at 1uM” value is reported as 9.87%. In the case of `Cc1ccc2[nH]c(=O)c(CN(CCCN3CCOCC3)C(=O)Nc3cccc(Cl)c3)cc2c1`, the “hERG current change (%, negative = inhibition) at 1uM” value is reported as 7.46%. `CC(=O)Nc1ccccc1S(=O)(=O)CC1CC1(Cl)Cl` (stereo not shown) was tested, and the “hERG current change (%, negative = inhibition) at 1uM” value was 15.7%. In the case of `Cc1ccc(CSCCNC(=O)CN(c2ccc(F)cc2)S(C)(=O)=O)cc1`, the “hERG current change (%, negative = inhibition) at 1uM” value is reported as 17.6%. For `CN1C(=O)CC(N2CCC(C(N)=O)(N3CCCCC3)CC2)C1=O` (stereo not shown), the “hERG current change (%, negative = inhibition) at 1uM” value was 2.45%. With `CC(C)COC(=O)N1C[C@H](O)C[C@H]1C(=O)Nc1ccc(Cl)cc1` the “hERG current change (%, negative = inhibition) at 1uM” value was 10.1%. For `COC(=O)CSc1nnc(C)n1-c1ccc(C)cc1`, the “hERG current change (%, negative = inhibition) at 1uM” value was 13.7%. `COc1ccc(/C=C(\NC(=O)c2ccccc2)C(=O)OCC2CCCN3CCCCC23)cc1OC` (stereo not shown) was tested, and the “hERG current change (%, negative = inhibition) at 1uM” value was 3.68%. `CC(N)Cc1ccccc1Sc1ccc(O)cc1.O=C(O)C(=O)O` (stereo not shown) was tested, and the “hERG current change (%, negative = inhibition) at 1uM” value was -1.15%. For `COc1ccc(C2(c3ccc(OC)cc3)NC(=O)N(CC(=O)N(C)C)C2=O)cc1`, the “hERG current change (%, negative = inhibition) at 1uM” value was 15.5%. `O=C(CN1CCOCC1)c1ccc2cc[nH]c2c1` was tested, and the “hERG current change (%, negative = inhibition) at 1uM” value was 9.34%. With `COc1ccc(NS(=O)(=O)c2cc(NC(=O)c3ccc(=O)[nH]c3)ccc2C)cc1` the “hERG current change (%, negative = inhibition) at 1uM” value was 18.5%. `Cl.Nn1cnnc1N/N=C/c1ccccc1C(F)(F)F` was tested, and the “hERG current change (%, negative = inhibition) at 1uM” value was 21.7%. In the case of `CC(=O)c1ccc(NC(=O)/C(=C\c2ccccc2)NC(=O)c2ccco2)cc1`, the “hERG current change (%, negative = inhibition) at 1uM” value is reported as 6.59%. `CN(c1ccccc1)S(=O)(=O)c1ccc(C(=O)N2CCc3ccccc3C2)cc1` was tested, and the “hERG current change (%, negative = inhibition) at 1uM” value was 0.39%. In the case of `COC(=O)c1c(-c2ccc(C)cc2)csc1NC(=S)NC(=O)c1ccc(F)cc1`, the “hERG current change (%, negative = inhibition) at 1uM” value is reported as 4.31%. In the case of `O=C1C=C(c2cccnc2)CCC1`, the “hERG current change (%, negative = inhibition) at 1uM” value is reported as 13.7%. In the case of `CN(CC(=O)Nc1ccc(F)cc1)S(=O)(=O)c1ccc2c(c1)c(=O)n(C)c(=O)n2C`, the “hERG current change (%, negative = inhibition) at 1uM” value is reported as 11.8%. For `CCCCC(=O)Nc1nnc(C)s1`, the “hERG current change (%, negative = inhibition) at 1uM” value was 7.9%. With `Cc1ccc(-c2nc(CSCC(=O)NCC3CCCO3)c(C)o2)cc1` (stereo not shown) the “hERG current change (%, negative = inhibition) at 1uM” value was 11.8%.
